# From the supplement of paper PMC8728848
# This is one part of the list.
# B1: Clone730PsrP (Streptococcus pneumoniae) (protein)
# chain: MDHHHHHHHHHHASENLYFQGAMVVGSQTAAATEATAKKVEEDRKKPASDYVASVTNVNLQSYAKRRKRSVDSIEQLLASIKNAAVFSGNTIVNGAPAINASLNIAKSETKVYTGEGVDSVYRVPIYYKLKVTNDGSKLTFTYTVTYVNPKTNDLGNISSMRPGYSIYNSGTSTQTMLTLGSDLGKPSGVKNYITDKNGRQVLSYNTSTMTTQGSGYTWGNGAQMNGFFAKKGYGLTSSWTVPITGTDTSFTFTPYAARTDRIGINYFNGGGKVVESSTT
# Key:
# Test in all cases: glycan array binding signal (z-score within array); higher = stronger binding
# Details in all cases: glycan notation: IUPAC condensed, linker removed
# [1] = target: Neu5Ac(a2-6)Gal(b1-4)GlcNAc(b1-3)Gal(b1-4)GlcNAc(b1-3)GalNAc
# Procedure, shortened: (§1)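 The binding signal is a Z-score computed within each array and averaged over linkers. Arrays of the same protein sequence at different concentrations or buffers were also averaged together. Data originate from 3228 arrays in the Consortium for Functional Glycomics database, kept only where the protein sequence was available.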
# [2] = target: Neu5Ac(a2-6)Gal(b1-4)GlcNAc(b1-3)Gal(b1-4)GlcNAc(b1-3)[Neu5Ac(a2-6)Gal(b1-4)GlcNAc(b1-3)Gal(b1-4)GlcNAc(b1-6)]GalNAc
# Procedure, shortened: as §1
# [3] = target: Neu5Ac(a2-6)Gal(b1-4)GlcNAc(b1-3)Gal(b1-4)GlcNAc(b1-6)[Gal(b1-3)]GalNAc
# Procedure, shortened: as §1
# [4] = target: Neu5Ac(a2-6)Gal(b1-4)GlcNAc(b1-3)Gal(b1-4)[Fuc(a1-3)]GlcNAc(b1-3)Gal(b1-4)[Fuc(a1-3)]GlcNAc
# Procedure, shortened: as §1
# [5] = target: Neu5Ac(a2-6)Gal(b1-4)GlcNAc(b1-3)GalNAc
# Procedure, shortened: as §1
# [6] = target: Neu5Ac(a2-6)Gal(b1-4)GlcNAc(b1-3)[Neu5Ac(a2-6)Gal(b1-4)GlcNAc(b1-6)]GalNAc
# Procedure, shortened: as §1
# [7] = target: Neu5Ac(a2-6)Gal(b1-4)GlcNAc(b1-6)GalNAc
# Procedure, shortened: as §1
# [8] = target: Neu5Ac(a2-6)Gal(b1-4)GlcNAc(b1-6)[Gal(b1-3)GlcNAc(b1-3)]Gal(b1-4)Glc
# Procedure, shortened: as §1
# [9] = target: Neu5Ac(a2-6)Gal(b1-4)GlcNAc(b1-6)[Gal(b1-3)]GalNAc
# Procedure, shortened: as §1
# [10] = target: Neu5Ac(a2-6)Gal(b1-4)GlcNAc6S
# Procedure, shortened: as §1
# Neu5Ac(a2-6)GalNAc = target: Neu5Ac(a2-6)GalNAc
# Procedure, shortened: as §1
# [11] = target: Neu5Ac(a2-6)GalNAc(b1-4)GlcNAc
# Procedure, shortened: as §1
# [12] = target: Neu5Ac(a2-6)GalNAc(b1-4)GlcNAc6S
# Procedure, shortened: as §1
# [13] = target: Neu5Ac(a2-6)GlcNAc(b1-4)GlcNAc
# Procedure, shortened: as §1
# [14] = target: Neu5Ac(a2-6)GlcNAc(b1-4)GlcNAc(b1-4)GlcNAc
# Procedure, shortened: as §1
# Neu5Ac(a2-8)Neu5Ac = target: Neu5Ac(a2-8)Neu5Ac
# Procedure, shortened: as §1
# [15] = target: Neu5Ac(a2-8)Neu5Ac(a2-3)Gal(b1-3)GalNAc(b1-4)[Neu5Ac(a2-3)]Gal(b1-4)Glc
# Procedure, shortened: as §1
# [16] = target: Neu5Ac(a2-8)Neu5Ac(a2-3)Gal(b1-3)GalNAc(b1-4)[Neu5Ac(a2-8)Neu5Ac(a2-3)]Gal(b1-4)Glc
# Procedure, shortened: as §1
# [17] = target: Neu5Ac(a2-8)Neu5Ac(a2-3)Gal(b1-4)Glc
# Procedure, shortened: as §1
# [18] = target: Neu5Ac(a2-8)Neu5Ac(a2-3)Gal(b1-4)GlcNAc
# Procedure, shortened: as §1
# [19] = target: Neu5Ac(a2-8)Neu5Ac(a2-3)[Gal(b1-3)GalNAc(b1-4)]Gal(b1-4)Glc
# Procedure, shortened: as §1
# [20] = target: Neu5Ac(a2-8)Neu5Ac(a2-3)[GalNAc(b1-4)]Gal(b1-4)Glc
# Procedure, shortened: as §1
# [21] = target: Neu5Ac(a2-8)Neu5Ac(a2-8)Neu5Ac
# Procedure, shortened: as §1
# [22] = target: Neu5Ac(a2-8)Neu5Ac(a2-8)Neu5Ac(a2-3)Gal(b1-4)Glc
# Procedure, shortened: as §1
# [23] = target: Neu5Ac(a2-8)Neu5Ac(a2-8)Neu5Ac(a2-3)[Gal(b1-3)GalNAc(b1-4)]Gal(b1-4)Glc
# Procedure, shortened: as §1
# [24] = target: Neu5Ac(a2-8)Neu5Ac(a2-8)Neu5Ac(a2-3)[GalNAc(b1-4)]Gal(b1-4)Glc
# Procedure, shortened: as §1
# [25] = target: Neu5Ac(a2-8)Neu5Ac(a2-8)Neu5Ac(a2-8)Neu5Ac(a2-3)[GalNAc(b1-4)]Gal(b1-4)Glc
# Procedure, shortened: as §1
# [26] = target: Neu5Ac(a2-8)Neu5Gc(a2-3)Gal(b1-4)GlcNAc
# Procedure, shortened: as §1
# [27] = target: Neu5Ac(b2-6)Gal(b1-4)GlcNAc
# Procedure, shortened: as §1
# Neu5Ac(b2-6)GalNAc = target: Neu5Ac(b2-6)GalNAc
# Procedure, shortened: as §1
# [28] = target: Neu5Ac9Ac(a2-3)Gal(b1-3)GlcNAc
# Procedure, shortened: as §1
# [29] = target: Neu5Ac9Ac(a2-3)Gal(b1-4)GlcNAc
# Procedure, shortened: as §1
# [30] = target: Neu5Ac9Ac(a2-6)Gal(b1-4)GlcNAc
# Procedure, shortened: as §1
# [31] = target: Neu5Gc(a2-3)Gal(b1-3)GlcNAc
# Procedure, shortened: as §1
# [32] = target: Neu5Gc(a2-3)Gal(b1-3)[Fuc(a1-4)]GlcNAc
# Procedure, shortened: as §1
# Neu5Gc(a2-3)Gal(b1-4)Glc = target: Neu5Gc(a2-3)Gal(b1-4)Glc
# Procedure, shortened: as §1
# [33] = target: Neu5Gc(a2-3)Gal(b1-4)GlcNAc
# Procedure, shortened: as §1
# [34] = target: Neu5Gc(a2-3)Gal(b1-4)GlcNAc(b1-3)Gal(b1-4)GlcNAc(b1-2)Man(a1-3)[Neu5Gc(a2-3)Gal(b1-4)GlcNAc(b1-3)Gal(b1-4)GlcNAc(b1-2)Man(a1-6)]Man(b1-4)GlcNAc(b1-4)GlcNAc
# Procedure, shortened: as §1
# [35] = target: Neu5Gc(a2-3)Gal(b1-4)[Fuc(a1-3)]GlcNAc
# Procedure, shortened: as §1
# [36] = target: Neu5Gc(a2-6)Gal(b1-4)GlcNAc
# Procedure, shortened: as §1
# Neu5Gc(a2-6)GalNAc = target: Neu5Gc(a2-6)GalNAc
# Procedure, shortened: as §1
# [37] = target: Neu5Gc(a2-8)Neu5Ac(a2-3)Gal(b1-4)GlcNAc
# Procedure, shortened: as §1
# [38] = target: Neu5Gc(a2-8)Neu5Gc(a2-3)Gal(b1-4)GlcNAc
# Procedure, shortened: as §1
# [39] = target: Neu5Gc(a2-8)Neu5Gc(a2-3)Gal(b1-4)GlcNAc(b1-3)Gal(b1-4)GlcNAc
# Procedure, shortened: as §1
# [40] = target: Neu5Gc(a2-8)Neu5Gc(a2-6)Gal(b1-4)GlcNAc
# Procedure, shortened: as §1
# [41] = target: Neu5Gc(b2-6)Gal(b1-4)GlcNAc
# Procedure, shortened: as §1
binder,measurement,setting,value
B1,glycan array binding signal (z-score),[1],-0.525
same,glycan array binding signal (z-score),[2],0.111
same,glycan array binding signal (z-score),[3],-0.382
same,glycan array binding signal (z-score),[4],-0.264
same,glycan array binding signal (z-score),[5],0.063
same,glycan array binding signal (z-score),[6],-0.567
same,glycan array binding signal (z-score),[7],0.094
same,glycan array binding signal (z-score),[8],-0.434
same,glycan array binding signal (z-score),[9],0.145
same,glycan array binding signal (z-score),[10],-0.391
same,glycan array binding signal (z-score),Neu5Ac(a2-6)GalNAc,-0.318
same,glycan array binding signal (z-score),[11],-0.466
same,glycan array binding signal (z-score),[12],-0.059
same,glycan array binding signal (z-score),[13],-0.403
same,glycan array binding signal (z-score),[14],-0.283
same,glycan array binding signal (z-score),Neu5Ac(a2-8)Neu5Ac,0.525
same,glycan array binding signal (z-score),[15],-0.282
same,glycan array binding signal (z-score),[16],1.53
same,glycan array binding signal (z-score),[17],-0.584
same,glycan array binding signal (z-score),[18],-0.453
same,glycan array binding signal (z-score),[19],-0.43
same,glycan array binding signal (z-score),[20],-0.27
same,glycan array binding signal (z-score),[21],-0.372
same,glycan array binding signal (z-score),[22],-0.37
same,glycan array binding signal (z-score),[23],0.785
same,glycan array binding signal (z-score),[24],-0.53
same,glycan array binding signal (z-score),[25],-0.514
same,glycan array binding signal (z-score),[26],-0.45
same,glycan array binding signal (z-score),[27],-0.36
same,glycan array binding signal (z-score),Neu5Ac(b2-6)GalNAc,-0.586
same,glycan array binding signal (z-score),[28],0.354
same,glycan array binding signal (z-score),[29],-0.137
same,glycan array binding signal (z-score),[30],-0.587
same,glycan array binding signal (z-score),[31],0.185
same,glycan array binding signal (z-score),[32],0.618
same,glycan array binding signal (z-score),Neu5Gc(a2-3)Gal(b1-4)Glc,0.613
same,glycan array binding signal (z-score),[33],-0.208
same,glycan array binding signal (z-score),[34],-0.301
same,glycan array binding signal (z-score),[35],0.189
same,glycan array binding signal (z-score),[36],0.758
same,glycan array binding signal (z-score),Neu5Gc(a2-6)GalNAc,0.158
same,glycan array binding signal (z-score),[37],-0.605
same,glycan array binding signal (z-score),[38],-0.641
same,glycan array binding signal (z-score),[39],-0.565
same,glycan array binding signal (z-score),[40],-0.41
same,glycan array binding signal (z-score),[41],0.052
